Results taken from the supplement of paper PMC7826260.
This is one part of the list. Viral Rep nickase domains cut single-stranded DNA in vitro for 1 h at 37 °C with 3 µM enzyme; only the middle of the 90-letter strands is printed. Uncut reads are compared with the no-enzyme pool on a log2 scale; strong cutting gives strongly negative numbers. There is no active / inactive call. Counts are relative to all reads; uncut strands gain when others are lost, and binding without cutting may add a little.

Columns and labels:
Assay in all cases: uncleaved DNA left, log2 of reads against the no-enzyme library (log2 ratio); higher = less cleavage (more negative = more Rep cleavage of the k-mer); sequences stand for … in CTCGTCCG…ACCGGAGA
[1] = test system: T1, Rep nickase domain of Muscovy duck circovirus
T1 sequence (residues 1-111, tag not shown): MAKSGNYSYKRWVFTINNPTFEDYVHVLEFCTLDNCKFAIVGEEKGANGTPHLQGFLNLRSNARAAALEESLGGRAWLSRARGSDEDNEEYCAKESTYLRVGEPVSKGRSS
Procedure: (§1)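 A pool of 90-nt single-stranded DNAs with seven random bases just before the constant AC of the nick site (name = the seven bases) was cut by 3 µM recombinant His6-SUMO-tagged Rep nickase domain (300 nM DNA, 50 mM HEPES pH 8.0, 50 mM NaCl, 1 mM MnCl2, 1 h, 37 °C, three replicates). Uncut DNA was amplified and sequenced.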

[2] = test system: T2, Rep nickase domain of banana bunchy top virus
T2 sequence (residues 1-94, tag not shown): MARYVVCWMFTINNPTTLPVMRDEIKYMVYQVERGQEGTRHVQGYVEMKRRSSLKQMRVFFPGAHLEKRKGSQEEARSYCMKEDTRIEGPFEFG
Procedure: as §1

[3] = test system: T3, Rep nickase domain of cabbage leaf curl virus
T3 sequence (residues 1-116, tag not shown): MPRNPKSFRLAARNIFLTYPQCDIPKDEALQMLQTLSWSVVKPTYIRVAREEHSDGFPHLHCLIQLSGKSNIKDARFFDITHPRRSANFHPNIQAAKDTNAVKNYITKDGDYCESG
Procedure: as §1

[4] = test system: T4, Rep nickase domain of chickpea chlorotic dwarf virus
T4 sequence (residues 1-124, tag not shown): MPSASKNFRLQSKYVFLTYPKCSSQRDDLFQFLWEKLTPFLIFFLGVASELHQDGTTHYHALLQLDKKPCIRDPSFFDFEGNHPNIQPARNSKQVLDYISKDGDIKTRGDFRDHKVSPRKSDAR
Procedure: as §1

[5] = test system: T5, Rep nickase domain of faba bean necrotic yellows virus
T5 sequence (residues 1-98, tag not shown): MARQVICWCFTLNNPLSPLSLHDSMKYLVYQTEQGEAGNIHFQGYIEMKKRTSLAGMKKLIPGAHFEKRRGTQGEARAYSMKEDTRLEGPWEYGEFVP
Procedure: as §1

[6] = test system: T6, Rep nickase domain of maize striate mosaic virus
T6 sequence (residues 1-117, tag not shown): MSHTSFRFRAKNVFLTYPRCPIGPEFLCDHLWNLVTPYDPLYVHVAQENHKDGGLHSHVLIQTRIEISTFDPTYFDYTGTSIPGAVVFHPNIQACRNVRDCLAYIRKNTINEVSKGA
Procedure: as §1

[7] = test system: T7, Rep nickase domain of porcine circovirus 2
T7 sequence (residues 2-116, tag not shown): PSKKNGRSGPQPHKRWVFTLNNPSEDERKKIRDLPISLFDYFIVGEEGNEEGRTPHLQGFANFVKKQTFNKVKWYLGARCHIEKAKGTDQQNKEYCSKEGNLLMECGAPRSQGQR
Procedure: as §1

[8] = test system: T8, Rep nickase domain of tomato golden mosaic virus
T8 sequence (residues 1-124, tag not shown): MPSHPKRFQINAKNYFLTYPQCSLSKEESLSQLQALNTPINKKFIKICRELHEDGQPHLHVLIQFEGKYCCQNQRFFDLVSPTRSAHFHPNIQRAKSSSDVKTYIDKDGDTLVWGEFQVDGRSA
Procedure: as §1

[9] = test system: T9, Rep nickase domain of tomato yellow leaf curl virus
T9 sequence (residues 1-136, tag not shown): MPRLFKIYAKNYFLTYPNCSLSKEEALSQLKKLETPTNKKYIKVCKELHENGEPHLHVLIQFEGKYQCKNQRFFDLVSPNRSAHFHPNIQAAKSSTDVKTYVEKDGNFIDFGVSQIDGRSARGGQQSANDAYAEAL
Procedure: as §1

[10] = test system: T10, Rep nickase domain of wheat dwarf virus
T10 sequence (residues 1-137, tag not shown): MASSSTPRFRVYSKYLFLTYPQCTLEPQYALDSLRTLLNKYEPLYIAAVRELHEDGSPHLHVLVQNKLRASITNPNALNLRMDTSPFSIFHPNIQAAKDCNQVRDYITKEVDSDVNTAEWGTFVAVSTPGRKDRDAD
Procedure: as §1

| Sequence | uncleaved DNA left (log2) [1] | uncleaved DNA left (log2) [2] | uncleaved DNA left (log2) [3] | uncleaved DNA left (log2) [4] | uncleaved DNA left (log2) [5] | uncleaved DNA left (log2) [6] | uncleaved DNA left (log2) [7] | uncleaved DNA left (log2) [8] | uncleaved DNA left (log2) [9] | uncleaved DNA left (log2) [10] |
| --- | --- | --- | --- | --- | --- | --- | --- | --- | --- | --- |
| GCTGGGG | 0.119 | 0.00973 | 0.426 | 0.696 | -0.0459 | 0.732 | 0.221 | 0.0642 | -0.0147 | 0.0661 |
| CATATTA | -0.151 | -0.0116 | -0.337 | -1.96 | -0.197 | -1.01 | -0.145 | -0.0347 | -0.0217 | 0.0273 |
| ACGATTC | 0.0439 | 0.194 | -0.0552 | -0.0156 | -0.0253 | -0.645 | 0.223 | 0.183 | 0.0894 | 0.0103 |
| ATGCCGA | -0.0427 | -0.0588 | -0.348 | -0.405 | 0.117 | -1.07 | 0.0488 | -0.00186 | -0.134 | -0.0406 |
| GAGAACA | 0.0389 | 0.0482 | 0.455 | 0.0833 | 0.0246 | 1.61 | -0.0757 | 0.0282 | 0.0755 | 0.142 |
| AGATGCA | 0.0405 | -0.0544 | -0.422 | -0.598 | 0.0132 | -0.845 | -0.0922 | -0.0382 | 0.0412 | -0.0718 |
| TGTCTAG | 0.0228 | -0.0767 | -0.537 | -0.825 | -0.00292 | -1.22 | 0.00275 | -0.0751 | 0.0469 | -0.0238 |
| GTGGTGG | -0.0474 | -0.0894 | 0.272 | 0.677 | -0.118 | 0.502 | -0.000372 | -0.0281 | 0.00457 | -0.119 |
| CCTTCGA | 0.0302 | -0.018 | -0.53 | -0.693 | -0.092 | -1.21 | 0.0218 | -0.119 | -0.094 | -0.175 |
| TGTAAAT | 0.106 | 0.253 | 0.28 | 0.352 | 0.238 | 0.698 | -0.23 | 0.0866 | 0.242 | 0.326 |
| CGAGACG | -0.0356 | 0.107 | -0.336 | -0.298 | 0.014 | -0.752 | 0.172 | 0.0323 | 0.0234 | -0.0182 |
| ACGTAGA | -0.0531 | 0.111 | -0.191 | -0.0526 | 0.107 | -0.772 | 0.138 | 0.0666 | 0.0247 | 0.0866 |
| ACAAAGA | 0.169 | 0.0292 | -0.0115 | -0.0369 | 0.0858 | -0.97 | 0.13 | 0.0206 | 0.115 | 0.0495 |
| ATCGGGA | 0.101 | 0.0395 | 0.475 | 0.817 | 0.0328 | 1.28 | 0.208 | 0.107 | -0.0306 | -0.00288 |
| TTGTGAG | 0.0628 | 0.000818 | -0.944 | -0.671 | -0.00573 | -1.28 | 0.179 | -0.163 | 0.0224 | -0.193 |
| TCGATCG | -0.00267 | 0.053 | -0.83 | -0.634 | -0.0621 | -1.14 | 0.126 | 0.0743 | 0.0136 | -0.061 |
| TCTATAT | 0.157 | -0.164 | 0.00881 | -0.601 | 0.0972 | -0.425 | -0.423 | -0.14 | -0.00159 | -0.0688 |
| ATGTAAG | 0.0872 | -0.0758 | -0.693 | -0.192 | 0.024 | -1.21 | 0.169 | 0.189 | -0.0298 | -0.0568 |
| CAACGCC | 0.0946 | -0.0114 | -0.0992 | -0.556 | -0.00939 | -0.563 | 0.0432 | 0.0309 | -0.123 | -0.0709 |
| ATGGGTA | -0.0181 | -0.188 | 0.112 | 0.798 | -0.0196 | 1.15 | -0.0289 | 0.0752 | -0.121 | -0.106 |
| GCTCGGT | 0.00115 | 0.0267 | 0.244 | 0.577 | -0.0828 | 0.585 | 0.0489 | -0.0313 | 0.00363 | 0.0608 |
| TGAGCAG | 0.109 | -0.0141 | -0.377 | -0.441 | -0.0378 | -0.897 | 0.0786 | -0.0171 | -0.0277 | -0.152 |
| CGTGAGG | 0.112 | 0.145 | 0.432 | 1.08 | 0.186 | 0.81 | 0.189 | 0.163 | -0.0458 | 0.0779 |
| AACCAAT | -0.0575 | 0.0111 | -0.312 | -1.99 | -0.138 | -0.492 | -1.57 | -0.014 | -0.109 | -0.141 |
| TTCGTGT | 0.0513 | 0.00261 | -0.128 | -0.801 | 0.0481 | -0.829 | 0.00478 | -0.0701 | -0.00568 | 0.0198 |
| AAATGGG | 0.0784 | 0.00269 | -0.661 | -0.759 | 0.0791 | -0.993 | 0.109 | 0.0449 | 0.0604 | 0.0153 |
| TCCGTCA | 0.0113 | -0.052 | 0.142 | -0.336 | -0.0393 | -0.03 | -0.0268 | -0.0296 | -0.0157 | -0.119 |
| TCTGTGC | 0.00111 | 0.0685 | -0.478 | -0.561 | 0.0296 | -1.1 | 0.0856 | -0.0866 | -0.0442 | -0.221 |
| TACTAAC | 0.132 | 0.143 | -0.272 | -1.72 | -0.000597 | -0.543 | -0.546 | 0.0254 | 0.0416 | 0.0575 |
| AACCTTG | -0.00362 | 0.0156 | -0.349 | -1.67 | 0.0472 | -0.894 | -0.0885 | 0.0124 | -0.0161 | 0.0647 |
